The text below walks through data of PubChem BioAssay AID1346428 (National Center for Advancing Translational Sciences (NCATS), 2018).

Where “and” joins values, the source holds several entries; their conditions need not be identical. Equal entries are not always repeated. The whole screen tested about 48,000 compounds, of which about 1,200 (2.5%) were called active. Inconclusive results (about 2%) are left out.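 Rule for the calls: active = activation of at least 60% and not above a set upper limit (about 1 call in 100 departs from these limits); inconclusive = activation of 40% to 60%, or above that upper limit; inactive = activation under 40%.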 The list shows a part of the results.

Sequence of UniProt O75388 (O75388 whole entry, looked up): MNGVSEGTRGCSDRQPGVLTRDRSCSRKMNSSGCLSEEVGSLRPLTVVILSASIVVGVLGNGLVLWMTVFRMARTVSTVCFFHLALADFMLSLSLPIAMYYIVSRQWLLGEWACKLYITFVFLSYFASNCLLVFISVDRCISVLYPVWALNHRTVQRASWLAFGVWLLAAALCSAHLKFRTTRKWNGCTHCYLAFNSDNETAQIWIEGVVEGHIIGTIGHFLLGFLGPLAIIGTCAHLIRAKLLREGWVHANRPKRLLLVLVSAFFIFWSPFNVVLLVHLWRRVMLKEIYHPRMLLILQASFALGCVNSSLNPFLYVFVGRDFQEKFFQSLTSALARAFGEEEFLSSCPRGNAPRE

The target in the assay is Probable G-protein coupled receptor 32 (Homo sapiens) (UniProt O75388). In words: qHTS for Agonists of Human Resolvin D1 Receptor DRV1. Note: 0% is about no effect. The settings on record: CHO-K1 GPR32 beta-arrestin PathHunter luminescence, 90 min; at 76.9 µM; stronger effect = higher value; zero percent set by DMSO-only wells. The method in brief:
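PathHunter beta-arrestin recruitment in CHO-K1 cells stably expressing ProLink-tagged GPR32. Cells were exposed to compound for 90 min at 37 C, then chemiluminescence was read after 1 h detection at ambient temperature; DMSO served as basal control.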
As for `CCc1ccccc1NC(=O)c1ncoc1-c1ccco1`, the activation was inactive: -3.51%.

For the compound `COc1ccc(-c2c(C)nn3c(-c4ccccc4)cc(-c4ccccc4)nc23)cc1`, the activation was inactive: 5.12%.

Take `Cc1ccc(NC(=O)CSc2nc3nccnc3c(=O)n2CCc2c[nH]c3ccccc23)c(C)c1`: the activation is inactive: -7.59%.

Regarding `COCCCNC(=O)c1ccc(Cn2c(=O)c3ccccc3n(CC(N)=O)c2=O)cc1`, the activation is inactive: -1.64%.

Take `CCOC(=O)c1ccc(NC(=O)CSc2nc3ncc(Br)c(C)c3[nH]2)cc1`: the activation was inactive: -6.68%.

Take `CC(=O)Oc1ccccc1C(=O)Nc1ncc([N+](=O)[O-])s1`: the activation is inactive: -17.6%.

On to `CC(C)(C)C(=O)Nc1cc(-c2cccc(Br)c2)nn1-c1ccccc1`, for which the activation was inactive: -0.567%.

On to `CCN(C(=O)c1ccc2c(c1)N(Cc1cccc(Cl)c1)C(=O)c1ccccc1S2=O)c1ccccc1` (stereo not drawn), for which the activation was inactive: -29.1%.

As for `COc1ccc(-c2cc3nc(N)cc(=O)n3[nH]2)cc1`, the activation was inactive: 2.46%.

`CCC(=O)N1c2ccccc2CC1C(=O)NCCCN1CCN(c2cc(C)ccc2C)CC1` (stereo not drawn): the activation was inactive: 3.56%.

As for `CC(C)c1ccc2oc(-c3ccc(Cl)c(NC(=O)c4cccs4)c3)nc2c1`, the activation was inactive: -1.43%.

In the case of `O=C(NCCCc1nc2ccccc2n1Cc1ccc(F)cc1)C1CCCCC1`, the activation is inactive: -4.59%.

With `Cc1ccc(C)c(CSc2nc3c([nH]c4ccccc43)c(=O)n2C)c1`, the activation was inactive: 6.2%.

`COc1ccc(NC(=O)c2cc(S(=O)(=O)N3CCOCC3)cn2C)cc1Cl`: the activation is inactive: -0.365%.

`Cc1ccc(C(=O)Nc2ccc(F)cc2)cc1S(=O)(=O)N1CCCCCC1`: the activation was inactive: -0.644%.

In the case of `Cn1nc(-c2ccc(OCC(=O)Nc3cccc(C(F)(F)F)c3)cc2)c2ccccc2c1=O`, the activation is active: 84.7%.

Regarding `Cc1cccc(C)c1OCc1cc(=O)n2c(-c3ccccc3)csc2n1`, the activation is inactive: -1.02%.

Turning to `COc1cccc2c1cc1c(=O)n(CC(=O)N3CCN(c4ccccc4F)CC3)nc(C)n12`, the activation is inactive: -5.24%.

Turning to `O=C1CS(=O)(=O)C2(C(=O)Nc3ccccc32)N1c1cccc(Cl)c1` (stereo not drawn), the activation is inactive: 0.999%.

`CCOc1ccc(NC(=O)CCCc2nc(-c3cccc(OC)c3)no2)cc1`: the activation was inactive: -14.4%.

For the compound `Oc1cc(O)c2c(c1)O[C@H](c1ccc(O)c(O)c1)[C@@H](O)C2`, the activation is inactive: -13.2%.

Take `Cc1ccc(CNC(=O)c2sc3nc(C)cc(C)c3c2-n2cccc2)cc1`: the activation is inactive: 27%.

Take `CCCCc1nn2c(=O)cc(COC(=O)c3cccc(NC(=O)COc4ccccc4)c3)nc2s1`: the activation was inactive: -10.2%.

Take `Cc1ccc(C2=NN(CC(=O)NCCCN(CC(C)C)CC(C)C)C(=O)CC2)cc1`: the activation is inactive: -3.64%.

As for `O=C(NC1CCCCCC1)C1CCN(C(=O)N2CCOc3ccc(Cl)cc32)CC1`, the activation is inactive: 2.6%.

For `C[N+]1(C)CCC(OC(=O)C(c2ccccc2)c2ccccc2)CC1`, the activation was inactive: -4.5%.

With `Cc1cc(C)n(-c2nc3ccccc3nc2Nc2ccc(C(C)C)cc2)n1`, the activation was inactive: -25.2%.

For `CCOCCCNC(=O)c1ccc2c(c1)NC(=O)C(CS(=O)(=O)Cc1ccc(F)cc1Cl)N2` (stereo not drawn), the activation is inactive: -15.7%.

With `Cc1cc2[nH]c(=O)c(=O)[nH]c2cc1S(=O)(=O)NCc1ccc(F)cc1`, the activation is inactive: 3.5%.

Turning to `Cc1cc(C)c(NC(=O)C(C)n2c(=O)cc(C)c3c(C)nn(-c4ccccc4)c32)c(C)c1` (stereo not drawn), the activation is inactive: -6.07%.

Turning to `CCOc1cccc(NC(=O)C2CC(=O)N(C)C(=Nc3cccc(OC)c3)S2)c1` (stereo not drawn), the activation is inactive: 27.8%.

On to `O=C(Nc1ccc(Cl)cc1Cl)c1cc(S(=O)(=O)N2CCC3(CC2)OCCO3)ccc1F`, for which the activation was inactive: -28.9%.

As to `O=C(NCc1cccc(F)c1)C1CCN(c2nc3ccccc3nc2C(F)(F)F)CC1`, the activation was inactive: 11%.

For the compound `CC(=O)N1CCc2c(sc3c2c(=O)n(-c2ccccc2)c(=O)n3CC(=O)c2ccc(Cl)cc2)C1`, the activation is inactive: 4.21%.

Regarding `COCCNC(=O)CCn1c(=O)c2cc(OC)c(OC)cc2n(CC(=O)Nc2ccc(F)c(Cl)c2)c1=O`, the activation was inactive: 4.1%.

Consider `CC(=O)N1CCOc2cc(S(=O)(=O)NCc3ccccc3Cl)c(C)cc21`, for which the activation is inactive: -9.1%.

Turning to `COc1ccccc1NC(=O)C(Cc1ccccc1)NS(=O)(=O)c1ccc2c(c1)CCN2C(C)=O` (stereo not drawn), the activation was inactive: -3.94%.

Regarding `O=C(O)c1ccc(Nc2nc3ccccc3c3nncn23)cc1`, the activation was inactive: 11.4%.

Take `Cc1cc(C)c(NC(=O)Cn2c(=O)n(-c3cccc(C(F)(F)F)c3)c(=O)c3c(C)c(C)sc32)c(C)c1`: the activation is inactive: 15.6%.

In the case of `CCc1ccccc1Nc1nn2c(=O)c3ccc(C(=O)NCc4ccc(C)cc4)cc3nc2s1`, the activation was inactive: -3.32%.

Regarding `Cc1cccc(OCC(=O)NCC2(N3CCN(C)CC3)CCCCC2)c1C`, the activation was inactive: -6.8%.

For `COc1ccc(OCc2ccc(-c3nc(C#N)c(N4CCC(C)CC4)o3)o2)cc1`, the activation is inactive: -24.5%.

As for `CCCNC(=O)C(=O)NCC(c1ccc2c(c1)OCO2)N1CCOCC1` (stereo not drawn), the activation is inactive: -12.9%.

For the compound `CCc1ccc(S(=O)(=O)c2nnn(-c3ccc(F)cc3)c2N)cc1`, the activation is inactive: -1.74%.

As for `Cc1ccc(NC(=O)c2ccc3snnc3c2)cc1Cl`, the activation is active: 95.1%.

Take `C=C(C)Cn1c(SCC(=O)Nc2cc(C)ccc2C)nc2sc3c(c2c1=O)CCCC3`: the activation was inactive: -5.21%.

Take `COc1ccc(-c2ccnc3[nH]n(-c4ccccc4)c(=O)c23)cc1`: the activation was inactive: 18.7%.

Consider `CCOC(=O)c1ccc(N2CCN(c3ccc(F)cc3)CC2)c(NC(=O)Nc2cccc(OC)c2)c1`, for which the activation is inactive: -17.7%.

With `CCC(=O)N1CCc2cc(Br)cc(S(=O)(=O)CCC(=O)N3CCN(c4ccccc4OC)CC3)c21`, the activation is inactive: -4.97%.

On to `COc1ccccc1N1CCN(S(=O)(=O)c2ccc3[nH]c4c(c3c2)CCCC4)CC1`, for which the activation was inactive: -5.6%.

Regarding `CCOc1cc(-c2nnc(SCC(=O)NCc3ccccc3)nc2-c2ccc(OC)c(OCC)c2)ccc1OC`, the activation was inactive: -24%.

`COc1ccc(/C=C\c2onc(C)c2S(=O)(=O)N2CCC(C(=O)Nc3ccc(Cl)cc3)CC2)cc1`: the activation was inactive: -15.5%.

Consider `COc1ccc(C(=O)N2CC(=O)Nc3ccc(C)cc3C2c2ccccc2)c(OC)c1` (stereo not drawn), for which the activation was inactive: -12.6%.

As for `Cc1ccc(-n2ncc(C(=O)N3CCCCC3)c2C2CCN(C(=O)OC(C)(C)C)CC2)cc1C`, the activation is inactive: -3.98%.

For `CCc1ccc(NC(=O)C2CCCN(S(=O)(=O)c3ccc4c(c3)CCCN4C(C)=O)C2)cc1` (stereo not drawn), the activation was inactive: -8.41%.

`CC(=O)Nc1ccccc1OCc1cc(=O)n2c3c(sc2n1)CCCC3`: the activation was inactive: 4.31%.

For the compound `Cn1c2ccccc2c2cnn(CC(=O)NCc3ccc(Cl)cc3)c(=O)c21`, the activation is inactive: -16.6%.

`COc1ccc2[nH]c(=O)c(CN(C(=O)c3cccc(Cl)c3)c3ccccc3OC)cc2c1`: the activation was inactive: -15.1%.

`CS(=O)(=O)N1CCc2cc(S(=O)(=O)NCc3ccccc3Cl)ccc21`: the activation was inactive: -2.78%.

With `COc1ccc(S(=O)(=O)NCCc2csc3nc(-c4ccc(Cl)cc4)nn23)cc1C`, the activation is inactive: 30.1%.

With `Cc1cccc(Cn2c(C)c(C)c3cc(C(=O)NCc4ccco4)ccc32)c1`, the activation is inactive: -23.5%.

With `Cn1cnc(S(=O)(=O)N2CCC(C(=O)NCc3ccccc3)CC2)c1`, the activation is inactive: -2.64%.

As for `CC1=C(c2ccc(F)cc2)S(=O)(=O)N=C1N1CCC(C(=O)NCCc2ccco2)CC1`, the activation was inactive: -2.04%.

For `Cc1ccc(Sc2c(C)nn(C(=O)COc3ccccc3)c2C)cc1`, the activation is inactive: 18.3%.

As to `COc1ccc(-c2nc(Cn3c(SCc4cccc(Cl)c4)nc4ccncc43)c(C)o2)cc1`, the activation is inactive: 7.23%.

Regarding `Cc1cccc(-n2c(-c3ccco3)nc3c(cnn3-c3ccccc3C)c2=O)c1`, the activation is inactive: 11.6%.

Take `Cc1ccc(C(c2sc3nc(-c4ccco4)nn3c2O)N2CCOCC2)cc1` (stereo not drawn): the activation was inactive: 17.8%.

As for `COc1ccccc1NC(=O)CSc1nc2ccccc2c(=O)n1CCC(=O)NC1CCCCC1`, the activation is inactive: 12.7%.

As for `O=C(CN1CCN(Cc2ccc(F)cc2Cl)S1(=O)=O)Nc1ccc(F)cc1`, the activation is inactive: 5.22%.

As for `CCOC(=O)c1c(S(=O)(=O)N2CCCC(C(=O)N(C)Cc3ccccc3)C2)c(C)n(C)c1C` (stereo not drawn), the activation was inactive: 40.4%.

For the compound `COc1cc(NC(=O)Cn2ccn(Cc3ccccc3OC)c(=O)c2=O)cc(OC)c1`, the activation is inactive: 2.76%.

As to `COC(=O)c1cc2c(cc1NC(=O)c1c(C)nn(-c3ccc(C)cc3)c1-n1cccc1)OCO2`, the activation was inactive: -12.6%.

Turning to `CCOc1ccc(NC(=O)Cn2c(=O)oc3cc(S(=O)(=O)NC4CCCC4)ccc32)cc1`, the activation was inactive: 17.3%.

For `Cc1ccc(NC(=O)Cn2c(C)cc(C)c(C#N)c2=O)cc1`, the activation was inactive: -6.79%.

For the compound `CCN(CC)CCOC(=O)C1(C2CCCCC2)CCCCC1`, the activation is inactive: -9.58%.

Regarding `CCCCOCCOCCOCc1cc2c(cc1CCC)OCO2`, the activation is inactive: 38.2% and inactive: -5.66%.

Take `Cc1ccccc1NC(=O)C1CCC(CNS(=O)(=O)c2ccc3c(c2)C(C)(C)C(=O)N3C)CC1` (stereo not drawn): the activation was inactive: -2.89%.

Turning to `Oc1ccccc1`, the activation was inactive: 4.84%.

As for `CCOc1ccc(CCNC(=O)c2cn(C)c3ccc(S(=O)(=O)N4CCOCC4)cc3c2=O)cc1OCC`, the activation is inactive: -8.16%.

Take `Cc1cc(NS(=O)(=O)c2ccc(NC(=O)c3ccccc3F)cc2)nc(C)n1`: the activation is inactive: -33.4%.

In the case of `Cc1ccc(-n2ncc3c(N(C)Cc4ccccc4)ncnc32)cc1`, the activation is inactive: 5.03%.

As for `CCc1ccc(NC(=O)Cn2c(=O)n(Cc3nc(-c4ccccc4)no3)c(=O)c3cc4c(cc32)OCO4)cc1`, the activation was inactive: -0.032%.

On to `COc1ccc(S(=O)(=O)N2CCC(c3ccncc3)CC2)cc1OC`, for which the activation is inactive: 7.95%.
